Screen size: about 350,000 compounds; about 31,000 (8.9%) were called active. This list was built around the results that the source calls inconclusive (neither active nor inactive); the mix of calls is not that of the screen. Calls follow the shape of the dose curve; as a rule, active = well fitted inhibition curve with a large enough effect; inconclusive = small, poorly fitted or top-dose-only effect; inactive = no such curve, though single readings can be large or run the other way. A potency beside an inconclusive call is a rough fit, not a confirmed value.
Molecular target: Histone-lysine N-methyltransferase EHMT2 (Homo sapiens) (UniProt Q96KQ7)
Assay: qHTS Assay for Inhibitors of Histone Lysine Methyltransferase G9a; also: nearly all actives have a fitted effect of over 75% in size
Conditions: G9a H3K9 monomethylation, AlphaScreen, 2 h; activity, negative = inhibition: at 59 µM (top of the series) unless noted
How it was run: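 Step 1: enzyme (final 20 nM) with compound, 15 min RT. Step 2: substrate peptide 500 nM and SAM 20 uM, 2 h RT. Step 3: anti-H3K9me1 antibody and AlphaScreen beads, 10 min, then plate read.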
% is scaled to controls: 0 for no effect and ±100 for the full control effect; potency is read from the fitted curve at half-maximal effect; tags tell the direction and shape of the fitted curve.

UniProt Q96KQ7, sequence (Q96KQ7 whole entry, looked up): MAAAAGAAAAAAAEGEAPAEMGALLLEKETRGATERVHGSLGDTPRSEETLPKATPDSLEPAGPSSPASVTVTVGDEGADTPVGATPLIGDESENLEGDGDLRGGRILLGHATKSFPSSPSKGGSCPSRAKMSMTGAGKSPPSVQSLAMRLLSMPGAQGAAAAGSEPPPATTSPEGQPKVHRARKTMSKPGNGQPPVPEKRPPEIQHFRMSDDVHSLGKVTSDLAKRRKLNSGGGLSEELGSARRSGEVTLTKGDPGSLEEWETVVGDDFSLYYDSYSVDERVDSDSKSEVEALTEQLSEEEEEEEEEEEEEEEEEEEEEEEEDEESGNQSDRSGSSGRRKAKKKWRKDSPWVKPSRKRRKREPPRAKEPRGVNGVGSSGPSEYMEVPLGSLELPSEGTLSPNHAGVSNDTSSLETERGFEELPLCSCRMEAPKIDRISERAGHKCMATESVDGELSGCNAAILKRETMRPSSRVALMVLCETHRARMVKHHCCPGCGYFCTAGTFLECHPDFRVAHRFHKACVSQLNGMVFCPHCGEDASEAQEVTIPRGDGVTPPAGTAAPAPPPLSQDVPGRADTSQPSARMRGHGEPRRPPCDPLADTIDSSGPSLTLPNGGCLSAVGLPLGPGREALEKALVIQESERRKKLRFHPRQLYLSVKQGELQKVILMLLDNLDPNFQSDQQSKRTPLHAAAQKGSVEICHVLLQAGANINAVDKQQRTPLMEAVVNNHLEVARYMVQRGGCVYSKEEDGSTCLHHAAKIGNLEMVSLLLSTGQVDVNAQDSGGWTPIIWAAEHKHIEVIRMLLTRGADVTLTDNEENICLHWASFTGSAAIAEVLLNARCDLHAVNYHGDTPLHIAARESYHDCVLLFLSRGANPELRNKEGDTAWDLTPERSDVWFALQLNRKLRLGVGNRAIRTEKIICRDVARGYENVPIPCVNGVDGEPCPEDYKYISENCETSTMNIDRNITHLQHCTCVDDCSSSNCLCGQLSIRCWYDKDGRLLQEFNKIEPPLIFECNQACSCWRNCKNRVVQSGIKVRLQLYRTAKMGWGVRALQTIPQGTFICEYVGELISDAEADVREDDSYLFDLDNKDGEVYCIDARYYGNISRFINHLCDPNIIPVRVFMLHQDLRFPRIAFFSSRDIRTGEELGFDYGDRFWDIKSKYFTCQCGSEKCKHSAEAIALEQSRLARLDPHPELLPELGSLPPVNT

| Compound | activity, negative = inhibition | Potency |
| --- | --- | --- |
| Cc1ccc2c(c1)c(C)c(C)n2CC(O)Cn1nc(C)c(Br)c1C (stereo unspecified) | inconclusive: -99.3% [inhibitor] | – |
| COc1ccc(Oc2coc3cc(OC(=O)c4cncc(Br)c4)ccc3c2=O)cc1 | – | inconclusive: 50.1 µM [inhibitor, partial curve, poor fit] |
| Cc1cc(O)c(C=Nc2cccc(Cl)c2)c(=O)o1 | – | inconclusive: 79.4 µM [inhibitor, single point] |
| Cc1ccc(NC(=O)CC2Oc3ccccc3NC2=O)cc1C (stereo unspecified) | – | inactive |
| COc1c(C)cccc1C(=O)Nc1ccc(-c2nc3ccccc3s2)c(Cl)c1 | – | inconclusive: 39.8 µM [inhibitor, single point] |
| Cc1ccc(N(C)S(=O)(=O)c2cccc(C(=O)NCCCN3CCCC3=O)c2)cc1 | – | inconclusive: 7.08 µM [inhibitor, single point] |
| CCc1cc(C=C(Cl)Cl)oc(=O)c1C | – | inconclusive: 79.4 µM [inhibitor, partial curve, poor fit] |
| O=C(NC1CCCC1)C(c1ccccn1)N(C(=O)c1csnn1)C1CC1 (stereo unspecified) | inconclusive: -77.1% [inhibitor] | – |
| CN(C)c1ncc(CN2CCC(C(=O)Nc3ccc(-n4cccn4)cc3)CC2)s1 | – | inactive |
| COc1ccc2[nH]cc(CCNc3ncnc4ccc(-c5c(C)noc5C)cc34)c2c1 | inactive: -43.2% [at 0.501 µM] | – |
| O=C(CSc1ncc(-c2ccccc2)n1C1CCCC1)N1CCc2ccccc21 | – | active: 31.6 µM |
| CC1CCCN(S(=O)(=O)c2cccc3nonc23)C1 (stereo unspecified) | – | inactive |
| O=S(=O)(O/N=C1\CCCc2ccccc21)c1ccc(Cl)cc1 | – | inconclusive: 3.55 µM [inhibitor, partial curve, poor fit] |
| CCN(CC)CCCNC(=O)c1ccc(Cn2c(SCc3ccccc3)nc3cccnc32)cc1 | – | inactive |
| COc1ccc2oc(C(=O)N3CCN(C(c4ccccc4)c4ccccc4)CC3)c(C)c2c1 | – | inconclusive: 50.1 µM [inhibitor, partial curve, poor fit] |
| CCc1cccc(C)c1NC(=O)c1ccccc1 | – | inconclusive: 89.1 µM [inhibitor, partial curve, poor fit] |
| Nc1c(C(=O)c2ccc(Cl)cc2)oc2ccccc12 | – | inconclusive: 25.1 µM [inhibitor, single point] |
| Cc1cc(CNC(=O)[C@H](C)[C@@H]2C[C@@]2(C)[C@@H](NC(=O)OCc2ccccc2)c2ccccc2)nn1C | – | active: 56.2 µM |
| CCc1ccc(C(=O)CSc2nc(N)cc(=O)[nH]2)cc1 | – | inactive |
| O=C(NC1CC1)C1CCN(c2ccc(S(=O)(=O)N3CCOCC3)cc2)CC1 | inactive: 17.8% [at 12.7 µM] | – |
| CCOc1ccc(C(=O)NCC(=O)NCC(c2cccs2)N2CCOCC2)cc1 (stereo unspecified) | – | inconclusive: 1.26 µM [inhibitor, full curve] |
| COCCNC(=O)c1nn(-c2ccc(C)cc2)c(=O)c2c1c1ccccc1n2C | – | inactive |
| CCn1nnnc1SCC(=O)NCc1cccs1 | – | inconclusive: 89.1 µM [inhibitor, single point] |

| Compound | activity, negative = inhibition | Potency |
| --- | --- | --- |
| CCOC(=O)c1cc2oc(C)cc2n1CC(=O)OC1CCCCC1 | – | inconclusive: 3.55 µM [inhibitor, single point] |
| CCC1=[N+](CC(=O)c2ccc(C)cc2)CCn2cccc21 | – | inconclusive: 50.1 µM [inhibitor, partial curve] |
| Cc1c(NC(=O)COC(=O)Cc2ccc(F)cc2)c(=O)n(-c2ccccc2)n1C | – | inactive |
| O=C(CN1CCSC1=NCc1ccccc1)c1ccc(Cl)cc1 | – | inconclusive: 39.8 µM [inhibitor, single point] |
| Oc1ccc(Cl)cc1-c1cc(-c2ccco2)[nH]n1 | inconclusive: -75.6% [inhibitor] | – |
| CCN1Cc2c(/C=C/c3ccccc3)nc3ccc(OC)cc3c2N(c2cccc(Cl)c2)C1 | – | active: 12.6 µM |
| CCN1CCN(Cc2ccc(NC(=O)Nc3cccs3)cc2)CC1 | inconclusive: -83.6% [inhibitor] | – |
| CC1=C(c2ccc(F)cc2)S(=O)(=O)N=C1N1CCC(C(=O)NCCc2cccc(C)c2)CC1 | – | inactive |
| CCN(c1ccccc1)c1nc(C#N)nc(N(CC)c2ccccc2)n1 | inactive: 11.5% [at 12.7 µM] | – |
| C/C(=N/NC(=S)Nc1ccccc1)c1ccc2c(c1)OCO2 | – | inconclusive: 25.1 µM [inhibitor, single point] |
| CCOc1ccc(Cc2onc3c2C(=O)CC(C)(C)C3)cc1OCC | – | inactive |
| Cc1ccc(NC(=O)CN2C(=O)c3cccnc3Oc3ccc(Cl)cc32)cc1 | – | inactive |
| COc1ccc(Cl)cc1NC(=O)CNc1ccccc1F | – | active: 79.4 µM |
| O=C/C(=C\Nc1ccc(S(=O)(=O)CCO)cc1)c1nc2cc(Cl)ccc2o1 | – | active: 50.1 µM |
| COc1cc2ncc3c(-c4ccc(C)cc4)nn(-c4ccc(F)cc4F)c3c2cc1OC | inactive: 8.62% [at 12.7 µM] | – |
| CN(C)CCCNc1cc(N2CCN(C3CCCCC3)CC2)c2noc3c2c1C(=O)c1ccccc1-3 | – | inconclusive: 28.2 µM [inhibitor, partial curve, poor fit] |
| Cc1cc(C)cc(NC(=O)N2CCCN(c3ncccc3[N+](=O)[O-])CC2)c1 | – | inconclusive: 39.8 µM [inhibitor, partial curve, poor fit] |
| Cc1ccc(Cn2c(SCCN3CCCCC3)nc3c2c(=O)n(C)c(=O)n3C)cc1 | – | inconclusive: 50.1 µM [inhibitor, partial curve] |
| CC1CCCCN1C(=O)CCNS(=O)(=O)c1ccc2c(c1)c(=O)n(C)c(=O)n2C (stereo unspecified) | – | inactive |
| Cc1cc(C)c2nc(-c3ccccn3)cc(C(=O)Nn3cnnc3)c2c1 | inconclusive: -75.1% [inhibitor] | – |
| Clc1cccc(CSc2nnc(-c3cccnc3)n2Cc2ccco2)c1 | – | inconclusive: 89.1 µM [inhibitor, single point] |
| COc1ccc(NC(=O)c2cc3c(s2)-c2c(C)cccc2OC3)cc1Cl | – | inconclusive: 28.2 µM [inhibitor, partial curve, poor fit] |
| CCOc1cc(CN2CCN(C(=O)CC(C)C)CC2)ccc1OC | – | inconclusive: 8.91 µM [inhibitor, single point] |
